# Screen size: about 310,000 compounds; about 18,000 (5.8%) were called active. Inconclusive means that the source gave no clear call. Such entries were picked first, then a sample of the others. The call rests on the fitted dose curve; in most records, active means well fitted inhibition curve with a large enough effect; inconclusive means small, poorly fitted or top-dose-only effect, or another doubt; inactive means no such curve, though single readings can be large or run the other way. Potencies of inconclusive entries are left out as doubtful fits.
# Test: Primary qHTS for delayed death inhibitors of the malarial parasite plastid, 48 hour incubation
# Conditions: P. falciparum luciferase growth in erythrocytes; series mostly up to 28.7 µM; activity change, negative = inhibition: at the top concentration
# Summary of the method: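 Compounds are pin-transferred into medium, infected erythrocytes (2% hematocrit, 0.1% parasitemia final) are added, and plates sit one parasite generation at 37 C in 5% CO2. Detection reagent is then added and luminescence measured.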
# On the % scale 0 is the no-effect control and ±100 the full control effect; potency means the concentration at half of the fitted maximal effect; tags describe the fitted curve by direction and shape.
SMILES,"activity change, negative = inhibition",Potency
CCOCCn1c(N2CCCN(C)CC2)nc2ccccc21,inactive: -0.199%,
CC(C)(C)c1ccc(C(=O)N2CCC3(CC2)NCCc2[nH]cnc23)cc1,,"inconclusive [inhibitor, full curve, poor fit]"
Nc1nonc1-n1nnc(C(=O)N/N=C/c2c(Cl)cccc2Cl)c1CN1CCOCC1,,"inconclusive [inhibitor, partial curve, poor fit]"
Cc1ccnc(N/C=C(/NC(=O)c2ccccc2)C(=O)N/N=C\c2ccc(Cl)cc2)n1,inactive: 73.9%,
CC(=O)N1c2ccc(S(=O)(=O)N3CCCC(C(=O)NCc4ccccc4)C3)cc2CC1C (stereo unspecified),,"inconclusive [inhibitor, partial curve, poor fit]"
Cn1c(CNC(=O)C2CCCCC2)cc2ccccc21,inactive: 2.62%,
CCOC(=O)C1(CC2CCCCO2)CCN(C(=O)Nc2ccc(C)c(C)c2)CC1 (stereo unspecified),,"inconclusive [inhibitor, full curve]"
S=C1NC[C@H](c2ccccc2)N1CCCCC1CCCCC1,,active: 11.7 µM
Cc1nc(SCC(=O)NC(=O)NC(C)(C)C)nc(C)c1C,inactive: -7.2%,
Cc1cccc(C(=O)NC2CC3CCCC(C2)N3C(=O)NC2CCCCC2)c1 (stereo unspecified),,"inconclusive [inhibitor, single point]"
Cn1ncc2c(NNC(=O)C3CCCCC3)ncnc21,inactive: 17.6%,
CCOc1ccc2nc(SCC(=O)N3CCCCCC3)c(C#N)cc2c1,,"inconclusive [inhibitor, single point]"
CCCCN1C(=O)C(=Nc2cccc3cnccc23)c2ccccc21,,"inconclusive [inhibitor, single point]"
C=CCN1C(=O)C(CC(=O)Nc2ccccc2)SC1=Nc1c(C)n(C)n(-c2ccccc2)c1=O (stereo unspecified),,"inconclusive [inhibitor, full curve, poor fit]"
CC(C)n1cnc2c(Nc3cccc(Cl)c3)nc(N(CCO)CCCO)nc21,,active: 7.38 µM
COc1ccc(N2CCN(c3ncnc4c3cnn4-c3ccc(C)cc3C)CC2)cc1,,"inconclusive [inhibitor, full curve]"
O=C(c1ccco1)N1CCN(C(c2cccs2)c2nnnn2C2CCCCC2)CC1 (stereo unspecified),,"inconclusive [inhibitor, single point]"
CCOc1ccccc1N1CCN(S(=O)(=O)c2ccc(Cl)s2)CC1,inactive: -15.5%,
COc1ccccc1NC(=O)c1cc2n(n1)C(C(F)(F)F)CC(c1ccc3c(c1)OCO3)N2 (stereo unspecified),,"inconclusive [inhibitor, single point]"
COc1cccc2sc(Nc3nc(-c4ccncc4)cs3)nc12,,"inconclusive [inhibitor, single point]"
Cc1nn(C(C)c2nc(-c3ccccc3)no2)c(C)c1[N+](=O)[O-] (stereo unspecified),inactive: 2.03%,
COc1ccccc1NC(=O)c1ccc(NC(=O)COC(=O)CC(NC(=O)c2ccccc2Cl)c2ccccc2)cc1 (stereo unspecified),,"inconclusive [inhibitor, full curve]"
N#Cc1nc(-c2ccccc2F)oc1NCCc1ccccn1,inactive: 11.9%,

SMILES,"activity change, negative = inhibition",Potency
O=c1[nH]c(=O)n(-c2cccc(Cl)c2)c(O)c1/C=N/c1ccccn1,inactive: 29.7%,
NC(=O)c1ccc[n+](Cc2ccccc2)c1,inactive: 6.59%,
COc1ccc(CCNC(=O)/C(=C/c2cccnc2)NC(=O)c2ccccc2)cc1,,"inconclusive [inhibitor, partial curve, poor fit]"
CCc1ccc(-c2nnn(CCC(=O)OC)n2)cc1,inactive: 43.4%,
COc1ccc(CSc2nnc(C)n2N)cc1[N+](=O)[O-],inactive: -12.9%,
O=C(Nc1cc(S(=O)(=O)N2CCOCC2)ccc1O)c1ccco1,,"inconclusive [inhibitor, single point]"
CCSc1cc(C2C(C(=O)OC)=C(C)NC3=C2C(=O)CCC3)c(C)o1 (stereo unspecified),,"inconclusive [inhibitor, partial curve, poor fit]"
Cc1ccc(-c2nn(-c3cc(Cl)ccc3[N+](=O)[O-])c(=O)c3ccccc23)cc1,,"inconclusive [inhibitor, partial curve]"
CCOc1ccc(OCC)c(NC(=O)CSc2nnc(C3CC3)n2CC)c1,inactive: -16.5%,
COC(=O)C1=C(C)N(c2cccc(OC)c2)C(=O)/C1=C\c1ccco1,,"inconclusive [inhibitor, single point]"
Cc1ccc(NC(=O)c2c([N+](=O)[O-])c(C(C)(C)C)nn2C)c(C)c1,,"inconclusive [inhibitor, partial curve, poor fit]"
COc1ccc(CNC(=O)CNS(=O)(=O)c2cccc(C#N)c2)cc1OC,inactive: -26.9% [at 0.00184 µM],
Cc1[nH]c2ccccc2c1C(=O)CN1CCN(c2ccc(Cl)cc2)CC1,,"inconclusive [inhibitor, single point]"
COc1ccc(CNC(=O)C(=O)N2CCC3(CC2)OCCN3S(=O)(=O)c2ccc(C)cc2)cc1,inactive: 5.34%,
COc1cccc(-c2nn(-c3ccccc3)cc2CN(C)Cc2c(C)nc3ccccn23)c1,,"inconclusive [inhibitor, partial curve]"
O=C(c1ccc(CS(=O)Cc2cccc(Cl)c2)o1)N1CCN(C2CCCCC2)CC1 (stereo unspecified),inactive: -1.8%,
CCN(CC)CCOc1c(Br)ccc2c1sc1nc3n(c(=O)c12)CCC3,,"inconclusive [inhibitor, single point]"
O=C(Nc1nc(-c2ccccn2)cs1)C12CC3CC(CC(O)(C3)C1)C2,inactive: 328%,
Cc1ccc(NC(=O)CN(C)C2CCCCC2)cc1Cl,inactive: -15.1%,
COc1cc(CN2CCCC(C(=O)N3CCc4ccccc4C3)C2)cc(OC)c1OC (stereo unspecified),,"inconclusive [inhibitor, full curve, poor fit]"
CC1CCCC(C)N1/N=C/C=C/c1ccccc1[N+](=O)[O-] (stereo unspecified),inactive: 0.171%,
NC(=S)N/N=C/c1cccc(O)c1O,,"inconclusive [inhibitor, full curve]"
CC1CCCN(S(=O)(=O)c2ccc(NC(=O)[C@@H]3CCCN3C(=O)c3cccs3)cc2)C1 (stereo partly specified),,"inconclusive [inhibitor, single point]"

# — PubChem BioAssay AID504832 (National Center for Advancing Translational Sciences (NCATS), 2011)
